The list shows a part of the results.
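Also: jurkat cells carrying a lentiviral library of mutant zinc finger degrons fused to EGFP plus mCherry, mCherry+ cells FACS sorted, degron abundance counted by next-generation sequencing.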

This assay addresses no compound (DMSO). In words: log2 fold change of degron read counts, EGFP-low vs EGFP+ sorted cells; higher = lower degron-EGFP level without compound (poor expression or instability). The following applies: compound: DMSO control; 18 h.
On to FVCDICGAYFTQKGNLLRHIKL, for which the “log2 fold change of degron read counts” value was -0.468.

With FICNQCGANFTQKGNLLRHIKL, the “log2 fold change of degron read counts” value was -0.881.

For the sequence FGCNQCGAWFTQKGNLLRHIKL, the “log2 fold change of degron read counts” value was 1.2.

Consider FSCPICGAKFTQKGNLLRHIKL, for which the “log2 fold change of degron read counts” value was -1.04.

Regarding LGCEICGFVCTQKGNLLRHIKL, the “log2 fold change of degron read counts” value is 0.859.

For the sequence FYCPVCGAYFTQKGNLLRHIKL, the “log2 fold change of degron read counts” value turned out to be 1.02.

FRCDQCGAQFTQKGNLLRHIKL: the “log2 fold change of degron read counts” value was -1.05.

With FYCNQCGRDFTQKGNLLRHIKL, the “log2 fold change of degron read counts” value was -0.127.

In the case of FRCPQCGACFTQKGNLLRHIKL, the “log2 fold change of degron read counts” value stood at 0.157.

With LTCPICGFACTQKGNLLRHIKL, the “log2 fold change of degron read counts” value is 0.412.

On to LGCPICGFPCTQKGNLLRHIKL, for which the “log2 fold change of degron read counts” value was determined as 1.23.

As to FTCNQCGRHFTQKGNLLRHIKL, the “log2 fold change of degron read counts” value is -0.856.

In the case of FTCNQCGAYFTQKGNLLRHIKL, the “log2 fold change of degron read counts” value came to 0.0312.

With FDCDICGAFFTQKGNLLRHIKL, the “log2 fold change of degron read counts” value turned out to be 0.716.

For the sequence FTCNQCGHMFTQKGNLLRHIKL, the “log2 fold change of degron read counts” value is -0.303.

With FQCEICGRDFTQKGNLLRHIKL, the “log2 fold change of degron read counts” value is -0.555.

In the case of FMCDICGAMFTQKGNLLRHIKL, the “log2 fold change of degron read counts” value is -0.622.

In the case of FTCPVCGACFTQKGNLLRHIKL, the “log2 fold change of degron read counts” value worked out at 0.318.

With FVCNQCGHAFTQKGNLLRHIKL, the “log2 fold change of degron read counts” value is -0.763.

On to FCCDICGAYFTQKGNLLRHIKL, for which the “log2 fold change of degron read counts” value is -0.245.

Regarding FGCEVCGANFTQKGNLLRHIKL, the “log2 fold change of degron read counts” value is -1.73.

As to FGCEICGRAFTQKGNLLRHIKL, the “log2 fold change of degron read counts” value is -0.827.

Turning to FICNQCGAMFTQKGNLLRHIKL, the “log2 fold change of degron read counts” value is -0.042.

Consider FKCNQCGARFTQKGNLLRHIKL, for which the “log2 fold change of degron read counts” value was -0.732.

FYCNQCGHMFTQKGNLLRHIKL: the “log2 fold change of degron read counts” value was -0.059.

For the sequence FWCPQCGAIFTQKGNLLRHIKL, the “log2 fold change of degron read counts” value amounted to 2.21.

Turning to LGCNQCGFLCTQKGNLLRHIKL, the “log2 fold change of degron read counts” value was 1.47.

For FFCDQCGAWFTQKGNLLRHIKL, the “log2 fold change of degron read counts” value was found to be 0.465.

On to FRCPICGHQFTQKGNLLRHIKL, for which the “log2 fold change of degron read counts” value worked out at 0.31.

Take FECPQCGAEFTQKGNLLRHIKL: the “log2 fold change of degron read counts” value is -2.49.

For FKCNQCGHAFTQKGNLLRHIKL, the “log2 fold change of degron read counts” value is -0.595.

As to FLCDVCGAIFTQKGNLLRHIKL, the “log2 fold change of degron read counts” value was -0.371.

Turning to FWCEQCGAFFTQKGNLLRHIKL, the “log2 fold change of degron read counts” value is 0.599.

For FDCEQCGAEFTQKGNLLRHIKL, the “log2 fold change of degron read counts” value was -2.75.

As to FMCEICGALFTQKGNLLRHIKL, the “log2 fold change of degron read counts” value is -0.706.

With FLCSVCGHLFTQKGNLLRHIKL, the “log2 fold change of degron read counts” value is 0.556.

In the case of FCCDQCGAPFTQKGNLLRHIKL, the “log2 fold change of degron read counts” value was -1.88.

In the case of LGCEICGFYCTQKGNLLRHIKL, the “log2 fold change of degron read counts” value was found to be 1.39.

As to LECNQCGFHCTQKGNLLRHIKL, the “log2 fold change of degron read counts” value was -0.183.

For the sequence FWCNQCGADFTQKGNLLRHIKL, the “log2 fold change of degron read counts” value is 0.167.

Take FCCNQCGADFTQKGNLLRHIKL: the “log2 fold change of degron read counts” value was -1.19.

Take FICPICGHLFTQKGNLLRHIKL: the “log2 fold change of degron read counts” value turned out to be 0.128.

In the case of FHCSVCGHRFTQKGNLLRHIKL, the “log2 fold change of degron read counts” value stood at 0.0615.

As to FYCEICGANFTQKGNLLRHIKL, the “log2 fold change of degron read counts” value is -0.658.

Take FQCDICGAVFTQKGNLLRHIKL: the “log2 fold change of degron read counts” value was -1.94.

Take FSCDICGAWFTQKGNLLRHIKL: the “log2 fold change of degron read counts” value is -0.79.

In the case of FFCEICGAQFTQKGNLLRHIKL, the “log2 fold change of degron read counts” value was -0.764.

For FFCPQCGAMFTQKGNLLRHIKL, the “log2 fold change of degron read counts” value was found to be 0.199.

On to FFCPQCGAYFTQKGNLLRHIKL, for which the “log2 fold change of degron read counts” value was 0.511.

On to FYCPQCGAFFTQKGNLLRHIKL, for which the “log2 fold change of degron read counts” value was 1.21.

For the origin of these results see the supplement of paper PMC12645437, “Orthogonal IMiD-Degron Pairs Induce Selective Protein Degradation in Cells” (ACS Chemical Biology, 2025).
